# Assay results from PMC12136788.
# The other results are listed elsewhere or left out.
# T1: UNK ZnF1-3 (human, UniProt Q9C0B0 31-174)
# T1 sequence: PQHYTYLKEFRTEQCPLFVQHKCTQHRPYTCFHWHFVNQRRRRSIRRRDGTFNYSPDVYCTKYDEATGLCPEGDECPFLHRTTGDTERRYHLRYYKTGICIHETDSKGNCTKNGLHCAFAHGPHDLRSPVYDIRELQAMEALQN
# B1: chrX:12717583:12717584:+_ENSMUSG00000031010_ENSMUST00000089302|mus_mus|FALSE|FALSE (ssRNA)
# RNA: GGGAGUUCUACAGUCCGACGAUCUUCAGCAUUGGGCACAUUAAUGUUACUGUUGUAGGCGUAAUUAAGAAGAUGUCUUAAAAGAGUAAAGUAGUCGCCUGAGUGUUUAGCCCUCUCUCUGGCUGUGCUCCCCAAAACAGUAAACAACAGAGGAUUGAGCAUCA
# B2: chr1:66480114:66480115:+_ENSMUSG00000015222_ENSMUST00000024639|mus_hu|mus_mus_mus_hu_True|48_58 (ssRNA)
# RNA: GGGAGUUCUACAGUCCGACGAUCUGGCCUGUGGCGGAUGUUCUUCAGAGAGCCACAUUUGGAUGUCACAUGGCUUAAGUCUAUCUUCUUAGUAACAAUUUGUACCUGCCCCCCUUUAGGCUGGUAUUUGAUGUUGUCUGUUGACAACAGAGGAUUGAGCAUCA
# B3: 8451679_8452034_1159_CDS_ENSG00000133026_ENST00000269243|human|control|control (ssRNA)
# RNA: GGGAGUUCUACAGUCCGACGAUCAGAAAUAUUUCCAAACUGUAGCACUGAAGAUACUACUUUAAGCAUUGACAGAAUCUCUUCAUGGGAGAAGCCCAUUAUGUGCAUUGCUUCCAUGGUCUCCUGGAAAUUAUCUUUGUCUUGCAACAGAGGAUUGAGCAUCA
# B4: chr8:133025090:133025091:+_ENSG00000132294_ENST00000254624|hu_mus|FALSE|FALSE (ssRNA)
# RNA: GGGAGUUCUACAGUCCGACGAUCGAAAAGACUAACUGCAAUGGUUUUCCUUUGCAUGCAAAGCAUGCCUUUUAAAAUCACUAAGAAACACAACAUUUUGUACAGCAAAGCUUGUGUUCUGCAUGAAUGCAAGUGAAUAUAUAUCAACAGAGGAUUGAGCAUCA
# B5: chr8:95500983:95500984:-_ENSG00000164944_ENST00000437199|hu_hu|hu_hu_hu_mus_True|1_18 (ssRNA)
# RNA: GGGAGUUCUACAGUCCGACGAUCAGAACACAUCUAUCGAGUAAAGGACCGUACAUGACGGCCUCUACCACUGCCUCCACUAACAAACUUUCCUCUCGAGCCUCCACUGCCGCUAUUUUGCACUAGCCAGGACGGUCCCAAGUCCAACAGAGGAUUGAGCAUCA
# B6: chr3:179342097:179342098:+_ENSG00000136521_ENST00000259037|hu_hu|motif|central (ssRNA)
# RNA: GGGAGUUCUACAGUCCGACGAUCCUGGUGCUUAACAUUAUUAGACUUCUAUAACUUCCAUUUGUCAGGUAAAUAAAACACGGACCUUUCAAAGUUGCUACAAUUUUAGGAGUUCACAAAUUCCUAUUUCUCCAGUUUUUAUUACAACAGAGGAUUGAGCAUCA
# B7: chr17:64801638:64801639:+_ENSG00000154229_ENST00000413366|hu_mus|hu_hu_hu_mus_False|68_108 (ssRNA)
# RNA: GGGAGUUCUACAGUCCGACGAUCUAUAAAUACAUAUACAUAUGUACACAUAUAUAGUAAAACCCUAAUCUAUCACGUAAAGUAGCCAUUCAUUUUUAAAAUUACAUCUACAUUAAAAAAUUAAUAUAUCUGAUAGAGUGCCAGCAACAGAGGAUUGAGCAUCA
# B8: chr10:115881139:115881140:-_ENSG00000165813_ENST00000369287|hu_mus|FALSE|FALSE (ssRNA)
# RNA: GGGAGUUCUACAGUCCGACGAUCUAUAUCCUUACCAGGGCAACAUGUGUCACAUUUACAGUAUUGAUAGUUUCAAGGGGGGGGUUUCUUCUUCCAAAUUUAAGACUAAAUUUUCUUGUAAAAAUAUUUAGAAAAUAACCAACACAACAGAGGAUUGAGCAUCA
# B9: 77717743_77745835_808_CDS_ENSG00000085365_ENST00000538629|human|control|control (ssRNA)
# RNA: GGGAGUUCUACAGUCCGACGAUCUGCAGCUUGGAGUACAUGUACAGCAAACUGACAAAUAUAGACGAAGAAGAAUACAAAGAAUCUAAAUGAACUGUCACUCCUGAAAGCUCCAUAAAGUGGUCUGUACCAACAGACAAAUGACAACAGAGGAUUGAGCAUCA
# B10: chr20:21312971:21312972:+_ENSG00000088930_ENST00000377191|hu_hu|FALSE|FALSE (ssRNA)
# RNA: GGGAGUUCUACAGUCCGACGAUCUCCAAACUGAUUACAAAGACCACAUGGUUUGGGCUUGUUUGGUUUGAAUUCUUCUCUAAUAAUGGUAAAGUUCGGUUCAUGUGUGGCAAGGCCAAGCAUAAUGAGAUCAGCAUCUGCUCCCAACAGAGGAUUGAGCAUCA
# B11: chr4:115894766:115894767:+_ENSMUSG00000028698_ENSMUST00000030464|mus_hu|mus_mus_mus_hu_True|38_58 (ssRNA)
# RNA: GGGAGUUCUACAGUCCGACGAUCUUCCACACGGAAAUGUACUUCGGGUUUUCCAACGGCCAGUACCAGUCCGGCCAACUACUAGGAACAGGGUCCUGUCCUCCUCUCCUACAGAACACAACAAAAUGCCCCCGAACUUUCAAGCAACAGAGGAUUGAGCAUCA
# B12: 13605205_13605325_3394_CDS_ENSG00000038219_ENST00000040738|human|control|control (ssRNA)
# RNA: GGGAGUUCUACAGUCCGACGAUCUUUUGGUCUCUGAAGGGAGGAACCGCUGGGAGUGCUCAAAGUGUUUGCUGCUAAUUUUUCUUCUCCUUUGGCCAUUUCUUGUGACAAGCUUCCUCUCCGAUUUUCGCACAACCUUCUACUCAACAGAGGAUUGAGCAUCA
# B13: 139357434_139357554_4811_CDS_ENSG00000148396_ENST00000313050|human|control|control (ssRNA)
# RNA: GGGAGUUCUACAGUCCGACGAUCCUGGGCCUCACCAGACUCCUCCUCUUCCACCUGCUCCACUGCCUCAUUCGUGAAAUCAAUCAGGUUUGCUUCAUUGGGCGACUUCCCAGGAAGCCACACUGUUCUGUGGUCUCGUAACAGCAACAGAGGAUUGAGCAUCA
# B14: chr5:64648305:64648306:+_ENSMUSG00000029174_ENSMUST00000119756|mus_mus|FALSE|FALSE (ssRNA)
# RNA: GGGAGUUCUACAGUCCGACGAUCGGGCUGAACCACAUUGUGCCCACCGAUGAGGUGGUUCUCUAUGUCAUUGUCAAAGGAGCUAAAGGUGCUACUGCGGAGGCUAGCGUCCUGGAACUCCUUCCUGAAGGCCAGCGAGCGCAGCAACAGAGGAUUGAGCAUCA
# B15: 71105547_71106059_2137_CDS_ENSMUSG00000031391_ENSMUST00000102871|mouse|control|control (ssRNA)
# RNA: GGGAGUUCUACAGUCCGACGAUCGUCAUACUUCUCAAUGGGAGAGUUGUGGUCUUCAGCAGGGCUCCAAGACAAGUGCACCUGGCUCUGCUUCAGCAGGUGGCGGUCGGACAGCUCCAGGUGAGGCACUGGCCCAGGGCUCCCCAACAGAGGAUUGAGCAUCA
# B16: chr13:14287670:14287671:+_ENSMUSG00000039219_ENSMUST00000039538|mus_mus|FALSE|FALSE (ssRNA)
# RNA: GGGAGUUCUACAGUCCGACGAUCAGCAGCACUUUCUCUCUCUUUCUUCUUUAAACGUUUUCUCCUCCUAUCAAUGGAAGCUACUUCAGAUUUUAAAGACAGAUAAUGCUUUCUGAUUUCUUGCAAUUUUUCUUGAAGAAUUGACAACAGAGGAUUGAGCAUCA
# B17: chr16:94690093:94690094:+_ENSMUSG00000040785_ENSMUST00000117648|mus_hu|mus_mus_mus_hu_True|98_98 (ssRNA)
# RNA: GGGAGUUCUACAGUCCGACGAUCGGGCUGGGAUGACAGCAGACAGCCCUCGAUUCCAGGGGGAAAAAGUCUUAGUCGAUACUAAUUAAAAAGUGUUAAUGAUUUUUGAAAAUCAGAUUACAUCUAUAAAAGAUGAAAAGCAAACAACAGAGGAUUGAGCAUCA
# B18: chr21:34923711:34923712:+_ENSG00000159140_ENST00000381679|hu_mus|motif|central (ssRNA)
# RNA: GGGAGUUCUACAGUCCGACGAUCCAUCUGAGAAUCCAUAGUGUUGGAUGCUAGCAUCUGGGAGUCCAUGGUAUUGGAUGCGGACAUAUGGGUCUCCAUGGUGUUAGAAGCUAGCAUAUGGGAUUCUUGGGCCAUCAAGGGGUCCAACAGAGGAUUGAGCAUCA
# B19: chr1:213174215:213174216:-_ENSG00000174606_ENST00000366962|hu_mus|motif|central (ssRNA)
# RNA: GGGAGUUCUACAGUCCGACGAUCUGUUUUUUCUACUUUGGGAACCUGCUGUGCCUCAUAAACACAGUUCUGAGAGAUGCCGGGGUUUGGGGGCCAAAUUGGAAUAGAUAAAAUUCUUUGUCCCCGUGAAGACUGUUCCUGGCCCAACAGAGGAUUGAGCAUCA
# B20: chr10:117126822:117126823:-_ENSMUSG00000020184_ENSMUST00000020408|mus_mus|FALSE|FALSE (ssRNA)
# RNA: GGGAGUUCUACAGUCCGACGAUCAGGUGCCUUUACUGGCUGAGUCUUCUCUGCAGCCCACAACUCACACAUUUUAGAUUACUACAGUUUCAGAAUUUCAAUAACUUAAAUAUACAAUCCUUCACAUAGUCUUUAACUCUUUACCAACAGAGGAUUGAGCAUCA
# B21: chr3:176767854:176767855:-_ENSG00000177565_ENST00000430069|hu_hu|hu_hu_hu_mus_False|58_58 (ssRNA)
# RNA: GGGAGUUCUACAGUCCGACGAUCGACAUCCUUGUUACUGGGCACGUCCUGCCCUCCUUCCCGUAUGCAGUGUCUAAGUACUAACUGCGUAGGGCCACUCGUGCUGUUCUCACUGAGGUUCCAGAUUCUUGCCGUGGAGUCUCCCAACAGAGGAUUGAGCAUCA
# B22: chr21:30434530:30434531:-_ENSG00000156261_ENST00000286788|hu_mus|FALSE|FALSE (ssRNA)
# RNA: GGGAGUUCUACAGUCCGACGAUCAUCAUCUACUGCCCUUUCUAUGUCAUCCAUCAGAUUGUCUGUAGAACCUCGAAGAACUAUAGUAGAAAUGGCACCAUCUUCUUUUUCAUGCUUAAAAACAACCACUUGUGUAUCUCCAACCAACAGAGGAUUGAGCAUCA
# Target: T1, UNK ZnF1-3
# Assay: nsRBNS (natural sequence RNA bind-n-seq); RBNS binding buffer (assumed for nsRBNS): 25 mM Tris pH 7.5, 150 mM KCl, 3 mM MgCl2, 0.01% Triton X-100, 500 ug/ml BSA, 20 U/ml SUPERase-In, 4 C; UNK is unkempt and MSI1 is Musashi-1; names of the RNAs are library labels; protein concentration not given here; high values mean tight binding
row,Binder,binding signal [enrichment R]
1,B1,1.08
2,B2,0.445
3,B3,0.805
4,B4,0.481
5,B5,0.861
6,B6,0.679
7,B7,1.22
8,B8,1.82
9,B9,0.964
10,B10,0.835
11,B11,0.954
12,B12,0.611
13,B13,0.654
14,B14,0.544
15,B15,0.684
16,B16,0.932
17,B17,1.5
18,B18,1.06
19,B19,1.09
20,B20,0.711
21,B21,0.664
22,B22,1.47
